The whole screen tested about 310,000 compounds, of which about 14,000 (4.5%) showed an effect of 50% or more. Effects have a minus sign here. The list shows a part of the results. Where a SMILES comes first, the peptide text is derived from it. [ ]: non-standard residue; d: D form. The star is where a group is joined. ξ: configuration not given here. Cbz = O=C(OCc1ccccc1)*; ξV = CC(C)C(N)C(=O)O; OtBu = CC(C)(C)O*
target: human ether-à-go-go-related gene (hERG) potassium channel (human, UniProt Q12809); test: primary screen, population patch clamp on CHO cells stably expressing hERG
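Also: peak tail current of the secondary pulse compared with the same well before compound.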

human ether-à-go-go-related gene (hERG) potassium channel, sequence (Q12809 whole entry, looked up): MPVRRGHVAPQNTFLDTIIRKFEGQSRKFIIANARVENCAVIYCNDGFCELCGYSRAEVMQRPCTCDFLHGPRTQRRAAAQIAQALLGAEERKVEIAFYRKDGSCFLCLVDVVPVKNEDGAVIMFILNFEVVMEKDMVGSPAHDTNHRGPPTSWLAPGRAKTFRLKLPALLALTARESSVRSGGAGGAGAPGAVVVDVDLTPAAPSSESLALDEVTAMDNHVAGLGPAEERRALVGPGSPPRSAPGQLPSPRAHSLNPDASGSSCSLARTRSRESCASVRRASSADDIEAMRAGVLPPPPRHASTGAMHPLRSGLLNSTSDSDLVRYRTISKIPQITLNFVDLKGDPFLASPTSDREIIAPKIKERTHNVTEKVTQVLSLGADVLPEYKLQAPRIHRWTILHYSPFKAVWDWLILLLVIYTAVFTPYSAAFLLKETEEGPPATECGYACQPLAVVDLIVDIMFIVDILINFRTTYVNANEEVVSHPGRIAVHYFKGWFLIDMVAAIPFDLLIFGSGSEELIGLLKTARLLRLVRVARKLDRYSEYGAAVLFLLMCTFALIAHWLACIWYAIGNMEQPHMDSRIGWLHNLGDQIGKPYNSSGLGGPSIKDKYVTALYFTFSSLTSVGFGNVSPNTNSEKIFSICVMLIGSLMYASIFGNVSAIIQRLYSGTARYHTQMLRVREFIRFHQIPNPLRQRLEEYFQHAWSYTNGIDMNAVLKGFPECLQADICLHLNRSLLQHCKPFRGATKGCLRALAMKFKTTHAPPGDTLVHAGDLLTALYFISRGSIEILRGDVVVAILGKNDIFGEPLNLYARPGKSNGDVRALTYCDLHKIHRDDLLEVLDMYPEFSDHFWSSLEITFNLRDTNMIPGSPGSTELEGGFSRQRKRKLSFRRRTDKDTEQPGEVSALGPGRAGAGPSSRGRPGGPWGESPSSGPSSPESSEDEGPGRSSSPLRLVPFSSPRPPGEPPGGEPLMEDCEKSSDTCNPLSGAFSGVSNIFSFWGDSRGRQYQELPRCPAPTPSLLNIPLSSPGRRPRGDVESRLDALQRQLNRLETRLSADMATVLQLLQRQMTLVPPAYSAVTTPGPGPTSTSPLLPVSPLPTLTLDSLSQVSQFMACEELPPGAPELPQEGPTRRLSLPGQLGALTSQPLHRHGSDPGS

SMILES | hERG current change (%, negative = inhibition) at 10uM [%]
C=CCNC(=S)N/N=C(\C)c1cccnc1 | 0.787
O=C(Nc1ccc(S(=O)(=O)N2CCOCC2)cc1)C1CC(=O)N(c2ccc(F)cc2)C1 (stereo not shown) | 13.7
CC(C)CNC(=O)c1cccc(NC(=O)CCc2ccccc2)c1 | -9.16
Cc1ccccc1OCc1nc(-c2cccnc2)no1 | -4.6
O=[N+]([O-])c1cccc(P(=O)(O)c2cccc([N+](=O)[O-])c2)c1 | 1.49
Cc1noc(C)c1CC(=O)N1CCCC(C(=O)c2ccc(C(C)(C)C)cc2)C1 (stereo not shown) | -18.8
Cc1ccc(OCC(=O)N2N=C(c3ccc(Cl)cc3)CC2c2ccco2)c([N+](=O)[O-])n1 (stereo not shown) | -63.3
CC(C)C(NC(=O)OCc1ccccc1)C(=O)NCC(=O)OC(C)(C)C (stereo not shown) (Cbz-[ξV]-Gly-OtBu) | 7.88
COc1ccc(Cl)cc1NS(=O)(=O)c1cc(Cl)ccc1OC | 3.37
CC(C)C(NS(=O)(=O)c1cccs1)C(=O)N1CCC(C(N)=O)CC1 (stereo not shown) | 12
Cc1nc2cc(NC(=O)NCc3ccc4c(c3)OCO4)ccc2o1 | 4.7
Cn1c(=O)[nH]c(=O)c2c1nc(Br)n2Cc1ccccc1F | 1.66
S=C1NC2(CCCC2)N=C1c1ccccc1 | 9.99
COc1cc(/C=C/C(=O)Nc2ccc(N3CCCCC3)c(S(=O)(=O)Nc3ccccc3Cl)c2)cc(OC)c1OC | 9.86
O=C(O)C(CO)(c1ccccc1)c1ccccc1 | 5.69
CCOC(=O)CN1C(c2ccc(O)cc2)Nc2ccc(Br)cc2C1c1ccccc1 (stereo not shown) | 2.1
CCCOc1ccccc1C1NC(=O)NC(C)=C1C(=O)OCCOCC (stereo not shown) | 7.8
Cc1ccc(S(=O)(=O)c2nc(-c3ccco3)oc2SCC(=O)NCC2CCCO2)cc1 (stereo not shown) | -1.02
CC(C)Oc1ccc(S(=O)(=O)N2CCCCC2)cc1NC(=O)CN1C(=O)NC(C)(c2ccccc2)C1=O (stereo not shown) | -0.319
CC(=O)c1cccc(NC(=O)CSc2nnc(C(C)N(C)C)n2-c2ccc(F)cc2)c1 (stereo not shown) | -8.59
CCOC(=O)/C(O)=C(\C#N)c1nc2ccccc2[nH]1 | 17.7
c1ccc(-n2nnnc2SCc2ccccn2)cc1 | 7.26

SMILES | hERG current change (%, negative = inhibition) at 10uM [%]
CS(=O)(=O)c1nc(S(=O)(=O)c2ccc(Cl)cc2)c(N2CCOCC2)s1 | 12.1
Cc1ccc(C(=O)NCCc2nnc3c(C(F)(F)F)cc(Cl)cn23)o1 | 6.52
O=C1Nc2cc(C(=O)N3CCC4(CC3)OCCO4)ccc2S/C1=C\c1ccccc1 | 36.4
O=C(c1ccc(CS(=O)c2ccc(F)cc2)o1)N1CCN(C2CCCCC2)CC1 (stereo not shown) | -11.9
CCOC(=O)C1=C(C)NC(C)=C(C(=O)OCC)C1C(=O)OCC(N)=O | 18.5
COc1ccc(-c2n[nH]c(=S)n2Cc2ccco2)cc1 | -3.73
O=C1NC2=C(C(=O)c3ccccc32)C(c2ccccc2)N1 (stereo not shown) | -7.72
O=C(NCC(O)c1ccccc1)c1cccs1 (stereo not shown) | -32.2
CCOC(=O)[C@H](CCc1ccccc1)N[C@@H](C)C(=O)N1C(C(=O)O)C[C@@H]2CCC[C@@H]21 (stereo partly shown) | 11.1
Cc1ccc(C(C2C(=O)CC(C)(C)CC2=O)C2C(=O)CC(C)(C)CC2=O)s1 | 14.3
CCc1cccc(NC(=O)CCCN2C(=O)NC(C)(C)C2=O)c1 | 13.4
COc1ccc(Nc2oc(COc3cccc(C)c3)nc2C#N)cc1 | 14
Cc1cccc(N2CCN(S(=O)(=O)c3ccc4c(c3)CCN4C(=O)CCC(=O)O)CC2C)c1 (stereo not shown) | 17.1
CC(=O)Nc1cc(C(C)(C)C)c(O)c(C(C)(C)C)c1 | 14.4
CN(C)CCOC1c2ccccc2CCc2ccc3ccccc3c21.O=C(O)C(=O)O (stereo not shown) | -1.36
COc1cccc(C(=O)Nc2ccc(NC(=O)c3ccco3)c(Cl)c2)c1 | 21.7
COc1cccc(C2=CC(=O)C[C@H](c3ccc4c(c3)OCO4)C2)c1 | -38
Cc1cc(C)cc(N(CCC#N)C(=O)COC(=O)CCc2c[nH]c3ccccc23)c1 | -32.6
Nc1nc(NC(=O)c2cccnc2)nn1-c1ccccc1 | 18.8
Cc1ccc(C(C(=O)NC2CCCC2)N(C(=O)Cc2cccs2)c2cccc(C)c2C)o1 (stereo not shown) | 10.2
CCOC(=O)c1ccc(NC(=S)NCCC2=CCCCC2)cc1 | 28.5
Cc1ccc2cccc(Oc3cnccn3)c2n1 | 1.04

SMILES | hERG current change (%, negative = inhibition) at 10uM [%]
CC1CCCN(S(=O)(=O)c2ccc(C(=O)Nc3nnc(-c4ccncc4)o3)cc2)C1 (stereo not shown) | 1.86
CN=C(Nc1ccc(Cl)cc1)c1ccc(C(F)(F)F)cc1 | -17.8
Cc1ccccc1NC(=O)C(C)N1C(=O)c2ccccc2C1=O (stereo not shown) | 14.7
CCN1C(=O)CS/C1=N\S(=O)(=O)c1ccc(Cl)cc1 | 18
NC(=O)c1cc(-c2ccccc2)nc2ccc(Br)cc12 | 13.7
CC(=O)Nc1sc(N/N=C/c2ccc(C)cc2)nc1-c1ccc(C)cc1 | 0.792
Cc1cc(NC(=O)CS(=O)(=O)c2ccc(F)cc2)no1 | -7.77
CCn1ncc(C2=NOC(C(=O)Nc3ccccc3C(=O)OC)C2)c1C (stereo not shown) | -15.9
O=[N+]([O-])c1ccccc1OCCN1CCCC1 | 5.97
N/C(=N\OC(=O)CCC1CCCCC1)c1cccc([N+](=O)[O-])c1 | -15.1
C[n+]1ccccc1C1CCCC/C1=N\NC(N)=S.[Cl-] (stereo not shown) | 35.8
COc1ccc(-c2nn(-c3ccccc3)cc2CN(C)CCn2ccnc2C)c(F)c1 | -57.6
Cc1ccc2[nH]c(=O)c(CN(Cc3ccccc3)Cc3nnnn3C3CCCC3)cc2c1 | -6.83
O=C(NCCCc1ccccc1)c1ccccc1O | -0.415
CCOc1ccc(CNCCCSc2ncccn2)cc1OC.Cl | -20.3
CC(=O)c1c(N2CCCCC2)nc(=O)n(-c2ccccc2)c1C | 9.17
O=C1c2cccc(OCC(=O)N3CCCc4ccccc43)c2CCN1Cc1ccccc1 | -17.8
O=C(O)c1cc([N+](=O)[O-])c(Sc2nc3ccccc3[nH]2)c([N+](=O)[O-])c1 | 3.61
C/C(=N\NC(=O)c1ccc([N+](=O)[O-])c(C)c1)c1ccccc1Cl | -1.51
Cc1cccc(NC(=O)CCCN=C2NS(=O)(=O)c3ccccc32)c1C | 5.14
COc1ccc(Nc2oc(-c3ccccc3F)nc2C#N)cc1 | 22.3
Cc1ccc(N2C(=O)Nc3ccccc3C2(O)C(=O)N2CCN(c3ccccn3)CC2)cc1C (stereo not shown) | 4.54

SMILES | hERG current change (%, negative = inhibition) at 10uM [%]
c1csc(-c2nnsc2-c2nc3ccccc3[nH]2)c1 | -7.14
COc1ccc(-c2csc(NCc3ccco3)n2)cc1 | 2.59
Cc1ccc(C2NC(=O)CCC2[N+](=O)[O-])cc1 (stereo not shown) | 13
O=C(Nc1ccc2c3c(cccc13)CC2)c1cccc([N+](=O)[O-])c1 | -4.61
CCN(c1ccccc1)c1nc(=O)c2cccnc2s1 | -13.8
Cc1ccc2c(C)[nH]c(=O)cc2c1 | -0.081
Cc1cc(C)cc(NC(=O)CSc2nnc(Cn3c(=O)sc4ccccc43)n2C)c1 | -8.19
C/C(=N\NC(=O)c1ccc(CSc2nc(C)cc(C)n2)cc1)C1CCCCC1 | -10.2
O=C(O)CCc1nn2c3ccccc3n(Cc3ccccc3F)c2nc1=O | 19.7
CC(C)(c1ccccc1)c1ccc(OCCN2CCOCC2)cc1.Cl | -25.5
CCc1cccc(CC)c1NC(=S)NCc1ccc2[nH]c(C)cc2c1 | -3.12
Cn1ncc(Cl)c1C(=O)Nc1sc2c(c1C(N)=O)CCC2 | -4.17
CCOP(=O)(Oc1ccccc1)c1c([N+](=O)[O-])cc(C(F)(F)F)cc1[N+](=O)[O-] (stereo not shown) | 14.3
O=C1CCN(S(=O)(=O)c2cc(C(F)(F)F)ccc2Cl)CC1 | -1.34
COC(=O)C1=C(c2ccc(F)cc2OCc2ccccc2)C[C@@H]2CC[C@H]1N2C(=O)NCc1ccc(Cl)cc1 | 7.04
O=c1c(-c2ccccc2)c(O)c2c(n1-c1ccccc1)CCCC2 | -7.4
CN(C)c1cccc(C(=O)NC2CCCCCC2)c1 | 5.08
COC(=O)c1ccc(CN2CCN(C(C)C)C(CCO)C2)cc1 (stereo not shown) | 3.39
Cc1ccc(S(=O)(=O)C2(C(=O)Nc3nccs3)CC2)cc1 | -10.4
Cc1[nH]n(-c2ccccc2)c(=O)c1/C=N/NC(=O)COc1ccccc1[N+](=O)[O-] | 19.7
CN(C)N1C(=O)CC(N2CCCCC2)C1=O (stereo not shown) | 6.08
O=C(Cn1ncn2c(cc3ccccc32)c1=O)NCCCc1ccccc1 | 5.88

From article PMC4336329 (PLoS ONE, 2015)
